Experimental data: US20220218614A1, “IONIZABLE CATIONIC LIPIDS AND LIPID NANOPARTICLES, AND METHODS OF SYNTHESIS AND USE THEREOF” (Tidal Therapeutics, Inc., priority 2020, published 2022)

How the values were obtained:
human CD3 T cells = assay: Transfection of human CD3 T cells (CD8 and CD4 subsets) with Fab/Nb-targeted LNPs; assay type: cell-based; settings: approximately 24 hr; for % GFP transfection and GFP expression (MFI) of CD8 and CD4 T cells, in words: targeted Lipid 8 LNP (Lipid 5 in Example 43), GFP mRNA approximately 2.5 μg/mL
Method: (§1) LNPs were prepared using the mixing process described in Example 6, the buffer exchange process described below in Example 21. Using methods similar to Example 12, hSP34 and TRX2 Fab-lipid conjugates and a non-T cell specific anti-HER2 lipid-conjugate (Nellis D F, Ekstrom D L, Kirpotin D B, Zhu J, Andersson R, Broadt T L, Ouellette T F, Perkins S C, Roach J M, Drummond D C, Hong K, Marks J D, Park J W and Giardina S L (2005) Preclinical manufacture of an anti-HER2 scFv-PEG-DSPE, liposome-inserting conjugate. 1. Gram-scale production and purification. Biotechnol Prog 21:205-220) were post-inserted at various densities (SP34 0.25-17 g/mol; TRX2 0.25-9 g/mol; SP34+TRX2 0.25-9 g/mol each conjugate; anti-HER2 17 g/mol) into LNPs containing Lipid 8 and anti-CD20 targeting CART mRNA. Transfections were performed with human CD3 T cells at approximately 2.5 μg/mL mRNA for approximately 24 hr. For FACS analysis T cells were stained with M1 antibody (Sigma, F3040) that bind a N-terminus FLAG-tag variant sequence on the TTR-023 CAR (sequence provided below) in addition to staining for CD69 (Biolegend, 310930) and CD4 (Biolegend, 344648) to differentiate CD8 from CD4 cells.
LNPs were prepared using the mixing process described in Example 6, the buffer exchange process described in Example 21. Using methods similar to Example 12, hSP34, TRX2, and Ibalizumab Fab-lipid conjugates and a non-T cell specific anti-HER2 lipid-conjugate were post-inserted at various densities (specified in FIGS. 20A and 20B into LNPs containing Lipid 8 and Cy5/GFP mRNA. Transfections were performed with human CD3 T cells at approximately 2.5 μg/mL mRNA for approximately 24 hr and stained for CD69 (Biolegend, 310930) and CD4 (Biolegend, 344648) to differentiate CD8 from CD4 cells by FACS analysis.
LNPs were prepared using the mixing process described in Example 6, the buffer exchange process described in Example 21. […] Levels of transfection of CD3 T cells was measured by flow cytometry. […]

human whole blood = assay: Whole blood transfection of immune cells with Fab targeted mRNA LNPs; assay type: cell-based; settings: Lipid 8 LNP, 2.5 μg/mL mCherry mRNA, 24 hours
Method: Venous blood from healthy volunteers was anti-coagulated in heparin tubes (BD Biosciences #367526) and seeded at 50 μL in a 96-well round-bottom plate. Transfection of whole blood was carried out simply by adding nanoparticles containing 5 μg/mL mRNA to the cells and co-culturing at 37° C. until the time of analysis. To assess transfection efficiency, cells were analyzed 24-hours post-transfection by flow cytometry. LNPs used (with and without post-inserted targets) at 2.5 μg/mL:RDM073.23. Cells obtained from human blood were analyzed by flow cytometry. Prior to the analysis of whole blood transfection efficiency, red blood cells were lysed twice with VersaLyse Lysing Solution (Beckman Coulter #A09777) for 10 minutes at room temperature. […]
Compensation for each fluorochrome was performed in the multicolor flow panels using positive and negative compensation beads. Fluorescence minus one (FMO) samples and unstained controls were included to determine the level of background fluorescence and to set the gates for the negative cell populations versus the positive cell populations.
All samples were acquired on a BD LSRFortessa X-20 (BD Biosciences) running […] software (Becton Dickinson). All data collected were analyzed using FlowJo 10.7.1 software and GraphPad Prism version 9.0. […]

human CD8 T cells = assay: Transfection of human CD8 T cells with Fab-targeted Cy5/GFP mRNA LNPs; assay type: cell-based; settings: Lipid 8 LNP, Cy5/GFP mRNA approximately 2.5 μg/mL, approximately 24 hr, Fab conjugate post-inserted
Method: LNPs were prepared using the mixing process described in Example 6, the buffer exchange process described in Example 21. hSP34 and TRX2 Fab-lipid conjugates generated from methods described in Example 4 and a non-T cell specific anti-HER2 lipid-conjugate (Nellis D F, Ekstrom D L, Kirpotin D B, Zhu J, Andersson R, Broadt T L, Ouellette T F, Perkins S C, Roach J M, Drummond D C, Hong K, Marks J D, Park J W and Giardina S L (2005) Preclinical manufacture of an anti-HER2 scFv-PEG-DSPE, liposome-inserting conjugate. 1. Gram-scale production and purification. Biotechnol Prog 21:205-220) were post-inserted at various densities (SP34 0.6-17 g/mol; TRX2 3-9 g/mol; anti-HER2 17 g/mol) into LNPs containing Lipid 8, Cy5 labeled GFP mRNA and GFP mRNA (1:9 Cy5:GFP mass ratio) by adding conjugate and LNPs together and heating the solution without mixing in a thermal cycler at 60 C for 60 min and cooled to 4° C. for 3-5 min. […] After transfection, LNP binding efficiency (Cy5) and transfection efficiency (GFP) was evaluated by flow cytometry. Supernatants were measured for human IFNγ concentration using a commercially available ELISA kit under manufacturers recommended conditions (R&D Systems Duoset). […]

IFNγ = assay: Human IFNγ ELISA of T cell culture supernatants after LNP transfection; assay type: cell-based; settings: T cells approximately 24 hr after targeted LNPs at approximately 2.5 μg/mL mRNA
Method: LNPs were prepared using the mixing process described in Example 6, the buffer exchange process described in Example 21. hSP34 and TRX2 Fab-lipid conjugates generated from methods described in Example 4 and a non-T cell specific anti-HER2 lipid-conjugate (Nellis D F, Ekstrom D L, Kirpotin D B, Zhu J, Andersson R, Broadt T L, Ouellette T F, Perkins S C, Roach J M, Drummond D C, Hong K, Marks J D, Park J W and Giardina S L (2005) Preclinical manufacture of an anti-HER2 scFv-PEG-DSPE, liposome-inserting conjugate. 1. Gram-scale production and purification. Biotechnol Prog 21:205-220) were post-inserted at various densities (SP34 0.6-17 g/mol; TRX2 3-9 g/mol; anti-HER2 17 g/mol) into LNPs containing Lipid 8, Cy5 labeled GFP mRNA and GFP mRNA (1:9 Cy5:GFP mass ratio) by adding conjugate and LNPs together and heating the solution without mixing in a thermal cycler at 60 C for 60 min and cooled to 4° C. for 3-5 min. […] After transfection, LNP binding efficiency (Cy5) and transfection efficiency (GFP) was evaluated by flow cytometry. Supernatants were measured for human IFNγ concentration using a commercially available ELISA kit under manufacturers recommended conditions (R&D Systems Duoset).
IFN-γ was assayed using an R&D Duoset […] ELISA kit, PN DY285B. […] Optical density at 450 nm was read on a Spectramax M5 plate reader. […]

CD69 = CD69 upregulation on T cells after LNP transfection (FACS staining); assay type: cell-based, human; settings: approximately 24 hr after targeted Lipid 8 LNPs at approximately 2.5 μg/mL mRNA
Method: as §1
LNPs were prepared using the mixing process described in Example 6, the buffer exchange process described in Example 21. […]

B1: TRX2: anti-CD8 Fab, SEQ ID NO: 6 and 7 (antibody)
heavy: QVQLVESGGGVVQPGRSLRLSCAASGFTFSDFGMNWVRQAPGKGLEWVALIYYDGSNKFYADSVKGRFTISRDNSKNTLYLQMNSLRAEDTAVYYCAKPHYDGYYHFFDSWGQGTLVTVSSASTKGPSVFPLAPSSKSTSGGTAALGCLVKDYFPEPVTVSWNSGALTSGVHTFPAVLQSSGLYSLSSVVTVPSSSLGTQTYICNVNHKPSNTKVDKKVEPKSSDKTHTC
light: DIQMTQSPSSLSASVGDRVTITCKGSQDINNYLAWYQQKPGKAPKLLIYNTDILHTGVPSRFSGSGSGTDFTFTISSLQPEDIATYYCYQYNNGYTFGQGTKVEIKRTVAAPSVFIFPPSDEQLKSGTASVVCLLNNFYPREAKVQWKVDNALQSGNSQESVTEQDSKDSTYSLSSTLTLSKADYEKHKVYACEVTHQGLSSPVTKSFNRGES
- % TTR-023+ (anti-CD20 CAR) CD8 and CD4 T cells, in words (human CD3 T cells; Lipid 8 LNP with anti-CD20 CAR (TTR-023) mRNA, approximately 2.5 μg/mL): transfection was detected over background for TRX2 at 6-9 g/mol Fab
- % GFP transfection and GFP expression (MFI) of CD8 and CD4 T cells, in words (human CD3 T cells): specific LNP binding and transfection to CD3 and CD8 cells respectively
- % GFP transfection and GFP expression (MFI) of CD8 and CD4 T cells, in words (human CD3 T cells; listed as TRX2 NoDS Fab): slightly higher % transfection (FIG. 68A) and GFP expression levels (FIG. 68B) than the buried disulfide (bDS) TRX2 Fab
- % mCherry+ cells (transfection) in whole blood, in words (human whole blood): efficiently transfects CD8 T-cells without transfection observed in CD4 T-cells
- transfection (% GFP+, GFP MFI) and binding (% Cy5+, Cy5 MFI), in words (human CD8 T cells): High transfection (FIG. 13A) and binding; also recorded: higher transfection than OKT8
- IFNγ secretion into supernatant, in words (IFNγ): low levels of IFNγ secretion
- CD69 upregulation on CD8 and CD4 T cells, in words (CD69): mediated CD69 expression on CD8 cells only; also recorded: much lower levels of CD69

“Also recorded” adds a separate entry of the source.
